About 14,000 (4.5%) of roughly 310,000 compounds showed an effect of 50% or more. Effects have a minus sign here. The list shows a part of the results.
molecular target: human ether-à-go-go-related gene (hERG) potassium channel (human, UniProt Q12809); experiment: primary screen, population patch clamp on CHO cells stably expressing hERG
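Also: peak tail current of the secondary pulse compared with the same well before compound.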

Chain of human ether-à-go-go-related gene (hERG) potassium channel (Q12809 whole entry, looked up): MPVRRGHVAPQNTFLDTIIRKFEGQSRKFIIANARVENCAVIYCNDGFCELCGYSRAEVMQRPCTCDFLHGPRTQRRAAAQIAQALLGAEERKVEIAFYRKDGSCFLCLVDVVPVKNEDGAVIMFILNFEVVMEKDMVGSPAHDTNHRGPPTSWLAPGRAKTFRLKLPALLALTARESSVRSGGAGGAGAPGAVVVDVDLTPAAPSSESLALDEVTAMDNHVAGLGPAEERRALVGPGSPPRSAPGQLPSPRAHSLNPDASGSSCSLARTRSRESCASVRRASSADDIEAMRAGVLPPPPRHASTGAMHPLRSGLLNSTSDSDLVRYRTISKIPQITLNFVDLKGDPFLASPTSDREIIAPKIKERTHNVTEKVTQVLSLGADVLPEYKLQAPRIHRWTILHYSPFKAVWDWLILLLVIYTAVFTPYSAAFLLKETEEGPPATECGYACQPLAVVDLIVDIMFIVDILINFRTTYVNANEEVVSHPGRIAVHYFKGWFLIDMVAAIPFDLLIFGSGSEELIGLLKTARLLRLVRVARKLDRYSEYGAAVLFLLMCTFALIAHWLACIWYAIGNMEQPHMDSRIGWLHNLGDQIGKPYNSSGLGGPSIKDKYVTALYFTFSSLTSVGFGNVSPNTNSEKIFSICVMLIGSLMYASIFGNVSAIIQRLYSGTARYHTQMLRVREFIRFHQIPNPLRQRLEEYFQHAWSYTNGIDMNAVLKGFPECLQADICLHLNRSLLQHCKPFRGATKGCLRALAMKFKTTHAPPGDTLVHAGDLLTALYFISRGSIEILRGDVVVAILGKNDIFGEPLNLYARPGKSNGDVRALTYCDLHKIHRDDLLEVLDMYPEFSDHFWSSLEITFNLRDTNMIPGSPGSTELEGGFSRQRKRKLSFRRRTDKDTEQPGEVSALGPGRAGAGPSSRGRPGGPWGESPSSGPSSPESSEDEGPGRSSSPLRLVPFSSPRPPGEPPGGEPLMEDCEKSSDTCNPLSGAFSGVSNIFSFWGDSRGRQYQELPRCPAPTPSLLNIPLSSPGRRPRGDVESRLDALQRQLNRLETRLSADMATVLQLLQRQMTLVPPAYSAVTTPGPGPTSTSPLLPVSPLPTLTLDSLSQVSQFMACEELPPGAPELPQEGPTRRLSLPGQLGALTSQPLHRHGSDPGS

SMILES	hERG current change (%, negative = inhibition) at 10uM
O=C(CCC(=O)NNC(=O)Nc1cccc(Cl)c1)NCc1ccccc1	7.96%
Cc1cc(C)nc(SCc2n[nH]c(=S)n2C)n1	7.5%
CC(NC(=O)CN1CCN(Cc2cccc(F)c2)CC1)c1ccccc1 (stereo not shown)	3.04%
COc1ccc(OCC(=O)N(Cc2sccc2C)C2CCS(=O)(=O)C2)cc1 (stereo not shown)	-23.2%
Cc1nc2nc(-c3ccco3)[nH]n2c(=O)c1C	-5.93%
O=C(CCN1C(=O)/C(=C/c2ccco2)SC1=S)Nc1ccc(O)cc1C(=O)O	-9.09%
Cc1cc(C)c(-c2csc(NC(=O)c3n[nH]c(=O)c4ccccc34)n2)c(C)c1	0.0213%
Clc1cccc(CN2CCSCC2)c1Cl	18.3%
CC(O)(CS(=O)(=O)Cc1ccccc1Cl)C(=O)Nc1cccc(C(F)(F)F)c1 (stereo not shown)	-19.9%
Nc1cccc(S(=O)(=O)Nc2ccccc2)c1	25.5%
CCC(C)NC(=O)COc1ccc(Br)c(C)c1 (stereo not shown)	8.76%
CC1Sc2ccccc2N(CC(=O)N(C(C)C)C(C)C)C1=O (stereo not shown)	-7.58%
CCOC(=O)C1CCN(c2nc3ccccc3nc2C(C#N)C(=O)OCCOC)CC1 (stereo not shown)	-27.4%
O=C(CN1CCCCC1)Nc1ccc(S(=O)(=O)N2CCCCCC2)cc1	-35.5%
CCOC(=O)c1oc2ccccc2c1COC(=O)CNC(=O)c1ccccc1	18.5%
CCOC(=O)Cc1nnc(NC(=O)COc2ccc(OC)cc2)s1	-13%
Cc1[nH]c2ccccc2c1C(=O)C(=O)N1CCN(C)CC1	18.5%
C=CCNC(=S)Nc1ccc2nc(C)oc2c1	10.7%
COc1ccc(C2CC(c3cccs3)=NN2C(=O)CCC(=O)O)cc1 (stereo not shown)	10.5%
COc1ccc(OCc2cccc(C(=O)N3CCCC3)c2)cc1	-3.08%
CCOC(=O)[C@H]1[C@H]2COc3ccc(Cl)cc3[C@@H]2N2C(=O)c3ccc(C)cc3NC(=O)[C@@]12C	5.25%
Cc1cn2c(-c3cccnc3)nnc2s1	-4.47%

SMILES	hERG current change (%, negative = inhibition) at 10uM
COc1cc(C(=O)NC(=S)Nc2ccccc2N2CCCC2)cc(OC)c1OC	4.4%
COc1ccc(N2CCN(C(=O)COC(=O)c3oc4ccccc4c3C)CC2)cc1	-21.6%
CCOC(=O)c1c(C)[nH]c(C)c1S(=O)(=O)NCc1ccccc1OCC	22.9%
CC12C=CC3(O1)C(C(=O)N(c1ccccc1)C3C(=O)NC1CCCC1)C2C(N)=O (stereo not shown)	-10.4%
CCOC(=O)C1=C(C)N=C2SC(CC)C(=O)N2C1c1cccc(F)c1 (stereo not shown)	-33.5%
Cn1c(O)c(C=Nc2ccc3c(c2)CCC3)c(=O)n(C)c1=O	3.67%
CC[n+]1c(/C=C/c2ccc(OC)c(OC)c2)ccc2ccccc21.[I-]	23.5%
O=C(Cn1nnc(-c2cccs2)n1)N1CCOCC1	0.125%
C/C(=N/Nc1nc(C)cc(-c2ccccc2)n1)c1ccco1	-1.42%
O=C(NC(=S)Nc1ccc(CN2CCOCC2)cc1)c1ccc(-c2ccc(Br)cc2)o1	13.7%
Cc1cc(NC(=O)Cc2ccccc2)ccc1NC(=O)c1cccs1	11.7%
O=C(CCSc1ccccc1)Nc1ccc(S(=O)(=O)N2CCOCC2)cc1	-25.2%
Cc1ccc(C(=O)N2N=C(c3ccc(Br)cc3)CC2c2ccccc2O)cc1 (stereo not shown)	0.897%
FC(F)Oc1ccc(NC(=S)NNc2ccnc3cc(Cl)ccc23)cc1	32.9%
CCOc1ncccc1C(=O)NCC1COc2ccccc2O1 (stereo not shown)	-17.9%
COc1ccc(-n2nc(C(=O)O)c3ccccc3c2=O)cc1	-12.1%
CC(Oc1ccc(C(=O)c2ccccc2)cc1)C(=O)N1CCOCC1 (stereo not shown)	-28.5%
Cn1cc(-c2ccno2)c(C(=O)O)n1	31.7%
O=c1n(Cc2ccccc2)c2cc(Cl)cnc2n1Cc1ccccc1	-6.94%
Cc1ccc2nc(-c3ccccc3)cc(C(=O)N3CCN(S(=O)(=O)c4c(C)noc4C)CC3)c2c1	6.62%
CCN(/C=N/S(=O)(=O)c1ccc(Cl)cc1)CC	10.6%

Source: publication PMC4336329 (PLoS ONE, 2015)
